# In PMC12136788:
# Some of the results follow.
# T1: UNK ZnF1-3 (human, UniProt Q9C0B0 31-174)
# T1 sequence: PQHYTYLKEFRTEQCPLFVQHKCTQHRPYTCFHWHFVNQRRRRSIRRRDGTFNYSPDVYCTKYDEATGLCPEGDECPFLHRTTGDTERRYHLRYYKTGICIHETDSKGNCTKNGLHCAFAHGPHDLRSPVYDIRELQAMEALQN
# B1: chr4:99801976:99801977:-_ENSG00000151247_ENST00000280892|hu_hu|FALSE|FALSE (ssRNA)
# RNA: GGGAGUUCUACAGUCCGACGAUCAACACAUUUAUGGAUUCUGGGGAUGUGUACUGUAAUUCUUUGAUUGGGAUAGUGGAAACUCUAGCCAAAAAAAAAAAAAAAAAUGAACACAGAAGUACAAGACAAAGGCGAAUGAGACUUCAACAGAGGAUUGAGCAUCA
# B2: chr7:65705844:65705845:+_ENSG00000169902_ENST00000304842|hu_mus|hu_hu_hu_mus_False|78_78 (ssRNA)
# RNA: GGGAGUUCUACAGUCCGACGAUCAAACGGAUCUUUGUUACAUAAAUAAGGUGCCGGCUCCCCAUGCUUAACAAUGACCUCCAGAAGGAAGGCUUGCAUGGCAGAAUCUAGCACUUCAUCUGUGACACCCGCCUCAUCCAAGCGCAACAGAGGAUUGAGCAUCA
# B3: chr7:7679991:7679992:-_ENSG00000106399_ENST00000396682|hu_hu|hu_hu_hu_mus_False|18_58 (ssRNA)
# RNA: GGGAGUUCUACAGUCCGACGAUCUGGGAUGAAUCUUUUCCAGCUUCCCCACGAAGCACACGGGCCGGUCGAUAUACUGAGCUAGCAUGCUGGCGUUGACGCGCGCUUUGGGGAGCUCCAUCAUGUCCUCCAUGAUUCUGCCGCCAACAGAGGAUUGAGCAUCA
# B4: 72251890_72264378_143_CDS_ENSG00000157107_ENST00000430046|human|control|control (ssRNA)
# RNA: GGGAGUUCUACAGUCCGACGAUCCUGUCCAUGUUUCAUAUUAUGGUAGAGGACAUCAAAGCCACUAUUUUUUUCCCCCCAAAAAUUCUCGACGAAAUACGCCAUGACCAUCGUGCCGCCGCCGCGCCGGGUUCCGCGUCCGCGCAACAGAGGAUUGAGCAUCA
# B5: chr10:36853299:36853300:-_ENSMUSG00000069662_ENSMUST00000092584|mus_mus|FALSE|FALSE (ssRNA)
# RNA: GGGAGUUCUACAGUCCGACGAUCUAUUAACAUUUUUUUUUCCAUUAGAAAACAACAGGAUGUACAAAACUUUGGAUGAAAAGUAUGUCAAAUUGCAUUUAGCCACUUGGAGGAAAAUCCACCGCUCCAUCAAUACCACCCAAACAACAGAGGAUUGAGCAUCA
# B6: 155448232_155448352_4847_CDS_ENSG00000116539_ENST00000392403|human|control|control (ssRNA)
# RNA: GGGAGUUCUACAGUCCGACGAUCACCAUAGGCCAUCUCAGGAGGAACACUGGGGUAGGUACUCAUGGAAAGGAGGGGAGUCCUGCUGGUUGUAAGAAAGGCCUCCUGUCGAAGUAGCUUAUGCUUUUUCUUAUGGUAUUUGGCCAACAGAGGAUUGAGCAUCA
# B7: 169710605_169710725_1072_CDS_ENSG00000008952_ENST00000337002|human|control|control (ssRNA)
# RNA: GGGAGUUCUACAGUCCGACGAUCUCCACUACUGUGCUGGGAUCGAUCAUCUUCCCUCCUGUCACUGUCCGUGUCUGAAUGCCGUUCUCCCCCCGAGCCUUCUGUUCCAUGAUUUCCUGGUCCUACUUUCCCCUCCUCAUCUUCCAACAGAGGAUUGAGCAUCA
# B8: chr2:103900078:103900079:+_ENSMUSG00000027180_ENSMUST00000028603|mus_hu|FALSE|FALSE (ssRNA)
# RNA: GGGAGUUCUACAGUCCGACGAUCCUCCUCCUCCUCUUCUUCCAUCUCUUCAUAUUCAUCAGGACCCAUUUCCAAUCGGGCUAUAGACACCCUGAAUGUUGGACAUGCCAUAUGGAAUCGGGGAAUGGCAACAUUAAAGAUCUUCAACAGAGGAUUGAGCAUCA
# B9: chr14:78183846:78183847:+_ENSG00000119705_ENST00000557342|hu_hu|hu_hu_hu_mus_False|28_108 (ssRNA)
# RNA: GGGAGUUCUACAGUCCGACGAUCUCUGUCUCAAAAAUCUUCAUCAGAUGUUUGAGCUCCGUGCAAAGCCUUUGCUCUUUGAGCUUGAACGUGGAUCUAUGGGAGGGCUAUAAUAUGCAGAAAAGGUAAUUUUUUUUUUAAAGACAACAGAGGAUUGAGCAUCA
# B10: chr2:162087991:162087992:+_ENSG00000136560_ENST00000392749|hu_mus|FALSE|FALSE (ssRNA)
# RNA: GGGAGUUCUACAGUCCGACGAUCCUUUCCUGGGGAAUCCAGUGAGGGAAAAGGUGCGUCAGGCGGGUCUUGAAGUGGGAACGUAUUUACAUAGAACACAUUGUGGUCUCCAGCUGGCAAACACGUCGCUCUAAGAUUUGAGGGCAACAGAGGAUUGAGCAUCA
# B11: chr4:140265382:140265383:+_ENSG00000164134_ENST00000296543|hu_hu|FALSE|FALSE (ssRNA)
# RNA: GGGAGUUCUACAGUCCGACGAUCUUCUCUAUAGAGACCUGCUUCCCGAAGAACUUGAUUCUGAUAUAAGAGUAGUUCACUAUAUUCAUAAUCCACCUUGUCAGGGGAUGUCUGUUGUGUUUUCCUAAAUUCUUCUAAAAUCUUCAACAGAGGAUUGAGCAUCA
# B12: chr8:127197416:127197417:-_ENSMUSG00000037300_ENSMUST00000118134|mus_hu|motif|central (ssRNA)
# RNA: GGGAGUUCUACAGUCCGACGAUCUUUGGCGACUUUGCUAAAGGCCUCUGAACCAGGGGCUGUCAUAGCUUCAAAGUCGACGGACUUCCCUUUGGGAAUUUUUCCUGCUACUUCUUUUCCACUUGCCAUCAGUGCUCCCACGAUCAACAGAGGAUUGAGCAUCA
# B13: 93805653_93805773_2646_3pUTR_ENSMUSG00000059474_ENSMUST00000107854|mouse|control|control (ssRNA)
# RNA: GGGAGUUCUACAGUCCGACGAUCGUUUCUGUACAAACAGUUAAAUGGGCUGCAAUAAAACGUCAGCGAGCACAAUUAAUGACCCCUUCCGUGAUCUACAUGGUGAUGAGCCCUCUGUGAGGGGUUCAGUUGCAUAUUUUCGCACAACAGAGGAUUGAGCAUCA
# B14: 155324285_155324405_7610_CDS_ENSG00000116539_ENST00000392403|human|control|control (ssRNA)
# RNA: GGGAGUUCUACAGUCCGACGAUCUCGGCAGAUCCCAUUCCAACGGGUAUAUAAUGAUGCUGAGUGAAUAUUAUCACUGGUGUGCUUUACUUCCUCCUGUUUUUGACGAAUCUUCUCCCAGUUUCGGACCAAGAAUACAUGAUGCAACAGAGGAUUGAGCAUCA
# B15: chr14:78183846:78183847:+_ENSG00000119705_ENST00000557342|hu_hu|hu_hu_hu_mus_False|38_58 (ssRNA)
# RNA: GGGAGUUCUACAGUCCGACGAUCUCUCAGAAAUCUUUCUUCAUCAGAUGUUUGAGCUCCGUGCAAAGCCUUUGCUCUUCUAGUGUGAACGUGGAUCUUUACUCCAUAAAGCACUGUCAGAAAAGGUAAUUUUUUUUUUAAAGACAACAGAGGAUUGAGCAUCA
# B16: chr8:126034020:126034021:+_ENSG00000104549_ENST00000265896|hu_hu|motif|central (ssRNA)
# RNA: GGGAGUUCUACAGUCCGACGAUCCUUAAAGCAAAAAUACACGGCAUAGAUUGCAACAGCAAAGAAGUGUCCAAUUAAAACGGGAGGGUUAGGAGACAAUACAGAAAGCAGCCCAACAGGACCCGCAACACAUUCGCCACCAAGCAACAGAGGAUUGAGCAUCA
# B17: chr8:121473430:121473431:+_ENSG00000172167_ENST00000305949|hu_hu|motif|central (ssRNA)
# RNA: GGGAGUUCUACAGUCCGACGAUCAAUAUCCGACAUAUAGCAGGAGGGUAGAUCUGAUAAUUUUAUCAUCUGCACAAAUUCGGAAGCAGGGCCAUAAUAAUGGAAAACCUUUGGCAAAAUAUUCUUAUCCUUUGAUGGUAUGAUCAACAGAGGAUUGAGCAUCA
# B18: chr3:138289918:138289919:-_ENSG00000114107_ENST00000484888|hu_mus|FALSE|FALSE (ssRNA)
# RNA: GGGAGUUCUACAGUCCGACGAUCGUGUGCCGCUCGGUUCUGUUCUAGCUGAAGUUCACUUUUCAGUUGCUGGUUGGUCUCUAUGAGCUCCCGUAUCAUGCUCUGCUGACGUGUUGUUUCUUCCAUCAACGUUUUCAAAAUCUGCAACAGAGGAUUGAGCAUCA
# B19: chr1:52222005:52222006:-_ENSMUSG00000026103_ENSMUST00000114513|mus_hu|FALSE|FALSE (ssRNA)
# RNA: GGGAGUUCUACAGUCCGACGAUCACAAUAGAAAAAUCACAAGAAAUCUGGAAUGAUCCAGUGGUCCCCCAAGGAGGACAAAUCUCUUGAUGCAGACUCUUAAUGACAGGCUUGGAAACAAAUGUUUGUUAGUUGUAGCAGUUCCAACAGAGGAUUGAGCAUCA
# B20: chr1:32384726:32384727:-_ENSG00000184007_ENST00000602725|perfect_dup|motif|central (ssRNA)
# RNA: GGGAGUUCUACAGUCCGACGAUCAGGAGGAAAUCAAUAAAUCUUGAAAUGUUCCGCAGCAGAAAACAUUAAAAAGACCACGGAAAUGCCUAUUAUUGAUCACUAUUUUCUCUAUUCAACUUGCUUGUUCCUUAGGAAGCUUCUCAACAGAGGAUUGAGCAUCA
# B21: chr6:47494509:47494510:-_ENSMUSG00000029687_ENSMUST00000081721|mus_mus|FALSE|FALSE (ssRNA)
# RNA: GGGAGUUCUACAGUCCGACGAUCCCCAAUUAGCCUAGCAAUGGCACAAAAGUUAUCGUAGUAAGUACCAAUGAGGACUCUAAACAUGGAGGCUUCAGCACCACUCCACUCCACAUUCUCAGGAGGUUCAAUAUUUGGCUUCAUCAACAGAGGAUUGAGCAUCA
# B22: chr4:129192164:129192165:+_ENSMUSG00000047945_ENSMUST00000062356|mus_mus|FALSE|FALSE (ssRNA)
# RNA: GGGAGUUCUACAGUCCGACGAUCGGAAUCACCCCCACCCUCCUUCCGAUUUCUCUUGAAGGACAGGCCACUCAAUUUGAAAGGCUUCUUGAAAGAGAAUUUCUUCUUCUUCUUGGGGGUCUCCUUGGGGGCGACCUCCCCCUUCAACAGAGGAUUGAGCAUCA
# Biological target: T1, UNK ZnF1-3
# Assay: nsRBNS (natural sequence RNA bind-n-seq); RBNS binding buffer (assumed for nsRBNS): 25 mM Tris pH 7.5, 150 mM KCl, 3 mM MgCl2, 0.01% Triton X-100, 500 ug/ml BSA, 20 U/ml SUPERase-In, 4 C; UNK is unkempt and MSI1 is Musashi-1; names of the RNAs are library labels; protein concentration not given here; high values mean tight binding
row,Binder,binding signal [enrichment R]
1,B1,2.58
2,B2,0.268
3,B3,0.939
4,B4,1.67
5,B5,1.49
6,B6,1.28
7,B7,0.815
8,B8,0.677
9,B9,1.61
10,B10,1.44
11,B11,0.811
12,B12,0.516
13,B13,0.85
14,B14,0.646
15,B15,0.619
16,B16,1.79
17,B17,1.32
18,B18,0.338
19,B19,1.08
20,B20,1.03
21,B21,1.52
22,B22,0.663
